Among all 54,000 compounds or so, about 120 (0.22%) were called active. The shares of active, inactive and inconclusive entries below differ from those in the screen. Calls follow the shape of the dose curve; as a rule, active = well fitted inhibition curve with a large enough effect; inconclusive = small, poorly fitted or top-dose-only effect, or effect the other way; inactive = flat fitted curve, though single readings scatter. Potencies of inconclusive entries are left out as doubtful fits.
molecular target: Fumarate hydratase, mitochondrial (Homo sapiens) (UniProt P07954); test: Identification of activators of human fumarate hydratase by quantitative high-throughput screening; conditions: FH coupled MDH/diaphorase resazurin fluorescence, 15 min; activity change, negative = inhibition: at 79.9 µM (top of the series); also: the screen sought activators but most active calls are inhibition curves; nearly all actives have a fitted effect of over 45% in size
Chain of UniProt P07954 (P07954 whole entry, looked up): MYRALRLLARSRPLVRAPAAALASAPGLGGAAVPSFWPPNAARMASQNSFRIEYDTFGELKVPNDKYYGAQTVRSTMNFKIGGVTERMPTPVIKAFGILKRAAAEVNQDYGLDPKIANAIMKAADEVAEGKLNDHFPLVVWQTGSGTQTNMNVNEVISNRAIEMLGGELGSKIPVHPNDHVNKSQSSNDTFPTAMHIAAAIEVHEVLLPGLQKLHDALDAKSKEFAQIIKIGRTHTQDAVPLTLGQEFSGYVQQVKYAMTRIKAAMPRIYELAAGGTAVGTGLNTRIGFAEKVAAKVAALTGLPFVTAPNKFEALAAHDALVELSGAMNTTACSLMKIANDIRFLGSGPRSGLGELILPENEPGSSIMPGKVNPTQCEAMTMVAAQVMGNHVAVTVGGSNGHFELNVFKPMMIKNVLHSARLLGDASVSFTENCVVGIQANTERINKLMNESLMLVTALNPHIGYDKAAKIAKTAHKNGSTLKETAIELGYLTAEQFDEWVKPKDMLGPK
% is scaled to controls: 0 for no effect and ±100 for the full control effect; potency is read from the fitted curve at half-maximal effect; tags tell the direction and shape of the fitted curve.

SMILES | Potency | activity change, negative = inhibition
O=C(O)c1cc(N(Cc2ccc(C3CCCCC3)cc2)C(=O)c2ccc(Oc3ccccc3)cc2)ccc1O | inconclusive [inhibitor, partial curve, poor fit] | –
Cc1cccc2sc(N(Cc3cccnc3)C(=O)C3CCCCC3)nc12 | – | inconclusive: -33.2% [inhibitor]
Cc1ccccc1C(=O)Nc1nc2c(s1)CC(C(C)(C)C)CC2 (stereo not given) | inconclusive [inhibitor, partial curve, poor fit] | –
COc1ccc(S(=O)(=O)NCc2cccn2Cc2cccc(C)c2)cc1OC | inconclusive [inhibitor, single point] | –
COc1ccc(S(=O)(=O)NCC(c2cccs2)S(=O)(=O)c2ccc(C)cc2)cc1F (stereo not given) | – | inconclusive: -30.3% [inhibitor]
COc1ccccc1CNC(=O)Cn1c(=O)ccc2cc(S(=O)(=O)N3CCC(C)CC3)ccc21 | – | inactive: -14.8%
COc1ccc(C)cc1NC(=O)CCS(=O)(=O)c1cc2c3c(c1)CCN3C(=O)CC2 | – | inactive: -5%
CCOC(=O)N1CCc2c(sc(NCc3sccc3C)c2C(=O)Nc2ccc(OC)cc2OC)C1 | – | inactive: -11.8%
CCCNC(=O)CCc1nnc2ccc(N3CCN(c4cccc(OC)c4)CC3)nn12 | – | inactive: 7.82%
CCOc1ccc(N2CC(c3nc4ccccc4n3CCCOc3ccccc3)CC2=O)cc1 (stereo not given) | inconclusive [inhibitor, single point] | –
CCOc1ccc(CCNC(=O)c2cn(C)c3ccc(S(=O)(=O)N4CCCCCC4)cc3c2=O)cc1OCC | inconclusive [inhibitor, single point] | –
Cc1ccc(CN(C(=O)COc2ccc([N+](=O)[O-])cc2)c2ccccn2)cc1 | inconclusive [inhibitor, partial curve, poor fit] | –
COc1cccc(-c2ncnn2-c2sc3c(c2C#N)CCCCC3)c1OC | inconclusive [inhibitor, partial curve] | –
CCc1ccc(NC(=O)c2sc3nc(C)c(Cl)c(C)c3c2NC(=O)c2ccccc2OC)cc1 | – | inactive: 1.42%
COc1ccc(/C=C/C(=O)Nc2ccc3nc4c(c(Nc5ccccc5OC)c3c2)CCCC4)cc1 | – | inactive: -25.4%
COCCNC(=O)Cn1nc(C)c2c(C)n(-c3ccc(C)cc3)nc2c1=O | – | inactive: -7.5%
COc1cccc(NC(=O)CSc2nnc3scc(-c4ccc(Cl)cc4)n23)c1 | inconclusive [inhibitor, single point] | –
CCN1CCOC(=O)C1CC(=O)Nc1cc(C)ccc1OC (stereo not given) | – | inactive: -4.45%
COc1ccc(NC(=O)Cn2c(=O)n(CCC(=O)NCc3ccccc3OC)c(=O)c3ccccc32)cc1Cl | – | inactive: 3.12%
Cc1nc2c(-c3ccccc3)c(C)nn2c(C)c1CCC(=O)N1CCN(c2ccc(F)cc2)CC1 | inconclusive [inhibitor, partial curve] | –

SMILES | Potency | activity change, negative = inhibition
OCCN1CCN(CC/C=C2/c3ccccc3Sc3ccc(C(F)(F)F)cc32)CC1 | inconclusive [inhibitor, partial curve, poor fit] | –
CCOC(=O)c1ccc(NC(=O)Cn2c(=O)cc(C)c3c(C)nn(-c4cccc(F)c4)c32)cc1 | inconclusive [inhibitor, full curve, poor fit] | –
CCCN1C(=O)c2[nH]nc(-c3ccccc3O)c2C1c1ccc(OCc2ccccc2)c(OC)c1 (stereo not given) | inconclusive [inhibitor, single point] | –
COc1ccc(Cn2ccn(Cc3cccc(C)c3)c(=O)c2=O)cc1 | – | inactive: -6.68%
CC(CC12CCCN1C(=O)C1CCCN1C2=O)OC(N)=O (stereo not given) | – | inactive: 10.3% [at 53.3 µM]
CC(C)C[C@@H]1NC(=O)[C@@H](Cc2ccccc2)NC(=O)C(CCCCCC(=O)C2CO2)NC(=O)[C@@H]2CCCCN2C1=O (stereo not given in full) | – | inactive: 5.39% [at 53.3 µM]
Cc1ccc(CNS(=O)(=O)c2ccc3[nH]c4c(c3c2)CCCC4)cc1 | inconclusive [inhibitor, single point] | –
CCCCc1nn2c(=O)cc(COC(=O)c3ccc(NC(=O)c4ccccc4C)cc3)nc2s1 | inconclusive [inhibitor, single point] | –
O=C(C1CCN(c2ncnc3c2nc2n3CCCCC2)CC1)N1CCN(c2cccc(Cl)c2)CC1 | inconclusive [inhibitor, partial curve, poor fit] | –
Nc1ccc(N2CCN(c3ncc(C(F)(F)F)cc3Cl)CC2)c(C(F)(F)F)c1 | inconclusive [inhibitor, single point] | –
C=C1CC2C(C)(CCC(=O)O)C(C(C)(C)O)CCC2(C)C2(C(=O)OC)C(=O)C(C)(O)C(=O)C12C (stereo not given) | – | inactive: 5.8% [at 53.3 µM]
O=C1NC(=O)C(c2cnc3ccccn23)=C1c1cn2c3c(cc(F)cc13)CN(C(=O)N1CCCCC1)CC2 | – | inactive: -9.31%
O=C(Cn1c(=O)nc(-c2ccccc2)c2ccccc21)NCc1ccc(Cl)cc1 | inconclusive [inhibitor, full curve] | –
Cc1cc(C)cc(NC(=O)C(=O)NCC(c2cccnc2)N2CCc3ccccc3C2)c1 (stereo not given) | inconclusive [inhibitor, single point] | –
Cc1[nH]c2ccccc2c1C(c1ccccc1)c1cccs1 (stereo not given) | inconclusive [inhibitor, single point] | –
COc1ccc(CCN2C(=O)c3[nH]nc(-c4ccccc4O)c3C2c2cccc(OC)c2)cc1 (stereo not given) | inconclusive [inhibitor, partial curve, poor fit] | –
COC(=O)c1c(NC(=O)Cc2coc3ccc(C)cc23)sc2c1CCC2 | inconclusive [inhibitor, partial curve, poor fit] | –
Cc1ccc(N(C)S(=O)(=O)c2ccc3[nH]c4c(c3c2)CCCC4)cc1 | inconclusive [inhibitor, single point] | –
Cc1cccc(N(C)C(CNS(=O)(=O)c2ccccc2)c2ccccc2)c1 (stereo not given) | – | inactive: -23.1%
Cc1nnc(N2CCCC(C(=O)Nc3cccc(C(F)(F)F)c3)C2)c2nn(-c3ccccc3)c(C)c12 (stereo not given) | inconclusive [inhibitor, full curve] | –

SMILES | Potency | activity change, negative = inhibition
CCCN1C(=O)c2[nH]nc(-c3ccccc3O)c2C1c1ccc(OCc2ccccc2)c(OCC)c1 (stereo not given) | inconclusive [inhibitor, single point] | –
CCC(Sc1nc2ccccc2c2nc(CCn3cncc3C)nn12)C(=O)Nc1cccc(OC)c1 (stereo not given) | inconclusive [inhibitor, single point] | –
O=C(C(c1ccccc1)c1ccccc1)N1CCN(CC(O)COc2cccc3ncccc23)CC1 (stereo not given) | inconclusive [activator, partial curve] | –
CCN(c1ccccc1)C(CNS(=O)(=O)c1ccccc1)c1ccccc1 (stereo not given) | inconclusive [inhibitor, single point] | –
Cc1ccccc1-c1nc(CS(=O)CC(=O)N2CCN(c3cc(Cl)ccc3C)CC2)c(C)o1 (stereo not given) | inconclusive [inhibitor, partial curve] | –
COc1ccc(-c2cc(=O)c3c(O)c(OC)c(OC)cc3o2)cc1O | inconclusive [inhibitor, partial curve] | –
O=S(=O)(NCCc1nnc2ccc(SCc3ccc(C(F)(F)F)cc3)nn12)c1ccccc1 | inconclusive [inhibitor, single point] | –
Cc1cc(C)c(S(=O)(=O)NCCc2cc3cc(C)c(C)cc3[nH]c2=O)c(C)c1 | inconclusive [inhibitor, partial curve, poor fit] | –
CCOc1cc(CNC2CCCC2)cc(Cl)c1OCc1ccc(Cl)cc1 | – | inactive: -5.06%
CCOC(=O)C1=C(CS(=O)(=O)c2ccc(C(C)(C)C)cc2)NC(=O)NC1c1cccc(OC)c1 (stereo not given) | inconclusive [inhibitor, partial curve, poor fit] | –
CC(=O)O[C@@H]1[C@@H](O)[C@H](O[C@H]2CC[C@]34C[C@]35CC[C@]3(C)[C@@H]([C@@]6(C)CC[C@@H](C(C)(C)O)O6)[C@@H](O)C[C@@]3(C)[C@@H]5C[C@H](O[C@@H]3O[C@H](CO)[C@@H](O)[C@H](O)[C@H]3O)[C@H]4C2(C)C)OC[C@H]1O | inconclusive [activator, partial curve, poor fit] | –
CN(C)c1ccc2c(c1)OC(N)=C(C#N)C2c1cccc(C(F)(F)F)c1 (stereo not given) | inconclusive [inhibitor, single point] | –
Oc1cc(O)c2c(c1)O[C@H](c1ccc(O)c(O)c1)[C@@H](O)C2 | inconclusive [inhibitor, partial curve] | –
Cc1cc(C)c(NC(=O)C(C)n2c(=O)cc(C)c3c(C)nn(-c4ccccc4)c32)c(C)c1 (stereo not given) | inconclusive [inhibitor, single point] | –
CCOc1cc(-c2nnc(SCC(=O)NCc3ccccc3)nc2-c2ccc(OC)c(OCC)c2)ccc1OC | – | inactive: -19.2%
CCCc1cc(C)[nH]c(=O)c1CNC(=O)c1cc(-c2ccc(N3CCN(C(C)C)CC3)nc2)cc2c1cnn2C(C)C | – | inactive: -3.36%
CCOc1ccc(CCNC(=O)c2cn(C)c3ccc(S(=O)(=O)N4CCOCC4)cc3c2=O)cc1OCC | inconclusive [inhibitor, partial curve, poor fit] | –
O=c1cc(-c2ccccc2)oc2c(O)c(O)ccc12 | active: 15.8 µM | –
CCOC(=O)c1c(S(=O)(=O)N2CCCC(C(=O)N(C)Cc3ccccc3)C2)c(C)n(C)c1C (stereo not given) | inconclusive [activator, partial curve, poor fit] | –
Cc1nn(C(=O)c2ccccc2)c(C)c1Sc1ccc(Cl)cc1 | inconclusive [inhibitor, single point] | –

Source: PubChem BioAssay AID1347055 (National Center for Advancing Translational Sciences (NCATS), 2019)
